# In PubChem BioAssay AID686978 (National Center for Advancing Translational Sciences (NCATS), 2013):
# Among all 420,000 compounds or so, about 64,000 (15%) were called active. The inconclusive results got no clear call from the source; some entries with a clear call stand among them for comparison. Calls come from the whole dose curve; as a rule, active = well fitted inhibition curve with a large enough effect; inconclusive = small, poorly fitted or top-dose-only effect; inactive = flat fitted curve, though single readings scatter. Potencies of inconclusive entries are left out as doubtful fits.
# Test: qHTS for Inhibitors of human tyrosyl-DNA phosphodiesterase 1 (TDP1): qHTS in cells in absence of CPT; note: nearly all actives have a fitted effect of over 55% in size
# Settings: DT40 Tdp1-/- hTDP1 cells, no CPT, ATP luminescence, 48 h; activity change, negative = growth inhibition: at 46.2 µM (top of the series) unless noted
# Procedure, shortened: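 Stably hTDP1-transfected Tdp1-null chicken DT40 cells were treated with library compounds minus camptothecin and grown for at least 48 hr at 37 °C, after which cellular ATP was quantified by luminescence.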
# % is set by controls: 0 for no effect and ±100 for the full control effect; potency is the fitted concentration of half-maximal effect; tags give direction and shape of the fitted curve.
Structure (SMILES),Potency,"activity change, negative = growth inhibition"
CCc1cc2ccc(C)cc2nc1SCC(=O)NNC(=O)c1ccco1,inactive,–
CC(=O)Nc1c(-c2ccc(Cl)cc2)c(=O)c2ccccc2n1C,inactive,–
CSCCC(NC(=O)c1ccc(Cl)cc1Cl)C(=O)N1CC(C)OC(C)C1 (centres undefined),inactive,–
COC(=O)c1cccc(S(=O)(=O)N(Cc2ccco2)Cc2cc3cc(OC)ccc3[nH]c2=O)c1,"inconclusive [inhibitor, single point]",–
COc1ccc(C)cc1NC(=O)C1CCN(S(=O)(=O)c2cc(Br)cc3c2N(C(C)=O)CC3)CC1,inactive,–
Cc1ccc(S(=O)(=O)CC(=O)N2CCN(c3ccc([N+](=O)[O-])cc3)CC2)cc1,"inconclusive [inhibitor, single point]",–
CCOc1ccc(C(=O)NC(=S)Nc2ncccc2C)cc1[N+](=O)[O-],"inconclusive [inhibitor, single point]",–
O=C(Cn1c2ccccc2c(=O)c2ccccc21)N/N=C/c1cc([N+](=O)[O-])ccc1N1CCCCCC1,inactive,–
COc1cc2oc3cc(C#Cc4ccc(N)cc4)ccc3c(=O)c2cc1OC,active: 16.4 µM,–
CCC1CN(C(=O)N2CCC(C(=O)Nc3ccccc3OC)CC2)c2ccccc2O1 (centres undefined),"inconclusive [inhibitor, single point]",–
Cc1cc(C(=O)N/N=C/C=C/c2cccc([N+](=O)[O-])c2)n[nH]1,"inconclusive [inhibitor, single point]",–
COc1ccc(Cl)cc1-c1cc(C(=O)NCc2cccc(C(F)(F)F)c2)[nH]n1,"inconclusive [inhibitor, partial curve]",–
O=C(Nc1ccc(N2CCOCC2)c(S(=O)(=O)Nc2ccccc2Cl)c1)c1ccc(=O)[nH]n1,active: 16.4 µM,–
O=C(c1cccs1)N1CCN(c2cc(Cl)ccc2Cl)CC1,"inconclusive [inhibitor, full curve, poor fit]",–
Cc1ccc(-c2ccc(C)c(N)c2C)c(C)c1N,inactive,–
COc1ccc(Oc2ccc(C(F)(F)F)cc2NC(=O)c2ccc(OC)cc2)cc1,"inconclusive [inhibitor, single point]",–
CCN(CC(=O)Nc1c(Cl)cccc1Cl)C(=O)C1CCN(c2ncnc3sc(C)c(C)c23)CC1,"inconclusive [inhibitor, single point]",–
COc1cc(/C=C2/SC(=Nc3ccc(O)cc3)NC2=O)cc(OC)c1O,active: 11.6 µM,–
CCc1ccc(C(=O)c2cn(CC(=O)Nc3cccc(OC)c3)c3cc4c(cc3c2=O)OCO4)cc1,"inconclusive [inhibitor, single point]",–
CCN1C(C)=C(C)S/C1=C1\SC(=S)N(C2CCCCC2)C1=O,"inconclusive [inhibitor, single point]",–
O=C(CCNc1n[nH]c(=O)[nH]c1=O)N1CCOCC1,inactive,–
CCn1c(SCc2c(F)cccc2Cl)nc(=O)c2c(C(=O)OC)cc(C3CC3)nc21,"inconclusive [inhibitor, partial curve]",–
Cc1ccc(-c2nnc(NC3CCCC3)s2)cc1,"inconclusive [inhibitor, partial curve]",–

Structure (SMILES),Potency,"activity change, negative = growth inhibition"
COc1cc(CN2CCNC(=O)C2CC(=O)NC2CCCC2)cc(OC)c1 (centres undefined),inactive,–
Cc1nc2ccccn2c1-c1nnco1,inactive,–
CCCCC[C@@H](/C=C/C1C(=O)C=C[C@H]1C/C=C\CCCC(=O)O)OC(C)=O (some centres undefined),active: 23.1 µM,–
CCOC(=O)c1ccc(N2C(=O)[C@@H](c3ccccc3)[C@H]2c2ccccc2)cc1,"inconclusive [inhibitor, single point]",–
Cc1ccc(F)c(C2=CC(=O)C[C@H](c3ccc(F)cc3)C2)c1,"inconclusive [inhibitor, single point]",–
CC(=O)Oc1cc(OC(C)=O)c2c(=O)c(-c3ccc4c(c3)OCCCO4)c(C)oc2c1,"inconclusive [inhibitor, single point]",–
Cc1cccc(C(=O)Nc2ccnc(-c3ccncc3)n2)c1,"inconclusive [inhibitor, partial curve]",–
Cc1c(-c2nc(-c3ccc(C(C)(C)C)cc3)no2)n(C)oc1=O,"inconclusive [inhibitor, partial curve]",–
O=C(Cc1cccc(NC(=O)C2CCN(C(=O)C3CCC3)CC2)c1)Nc1cccc(C(=O)N2CCCC2)c1,inactive,–
O=C(Cc1ccc(NC(=O)C2CCCN(C(=O)C3CCCC3)C2)cc1)Nc1cccc(C(=O)N2CCCC2)c1 (centres undefined),"inconclusive [inhibitor, single point]",–
O=C(Nc1ccc2c3c(cccc13)CC2)c1ccccc1,"inconclusive [inhibitor, single point]",–
COc1ccc(C)cc1NC(=O)C1CCCN(c2ncnc3onc(C)c23)C1 (centres undefined),active: 16.4 µM,–
Cc1ccc(C)c(N2CCN(C(=S)Nc3ccc4nc(N5CCOCC5)cc(C)c4c3)CC2)c1,–,inconclusive: -32.9% [inhibitor]
CC1=CC2C(C)(C)CC(=O)C[C@]2(C)CC1COc1ccc2c(c1)CC(=O)C=C2 (some centres undefined),–,inactive: -5% [at 9.04 µM]
CN(Cc1nnc(SCC(=O)NCCc2ccccc2)n1C)S(=O)(=O)c1ccccc1,"inconclusive [inhibitor, partial curve, poor fit]",–
O=C(CNC(=O)c1ccccn1)N=Nc1c(O)[nH]c2ccccc12,active: 14.6 µM,–
C=CCOc1ccc(C=Nc2ccc(Cl)cc2)c(O)c1,inactive,–
Cc1nn(-c2ccccc2)c(C)c1/C=N/NC(=O)c1cc(C(C)(C)C)[nH]n1,"inconclusive [inhibitor, single point]",–
COc1ccc(CC(=O)Nc2nc(-c3cccc([N+](=O)[O-])c3)cs2)cc1,"inconclusive [inhibitor, single point]",–
CCOc1ccccc1NC(=O)CN(C)S(=O)(=O)c1ccc(C(=O)N2CCOCC2)s1,"inconclusive [inhibitor, single point]",–
O=C(Nc1ccccc1F)N(CCCN1CCOCC1)Cc1cc2cc3c(cc2[nH]c1=O)OCCO3,active: 16.4 µM,–
COc1cc(OC)nc(Nc2nc(C(N)c3ccccc3)cs2)n1 (centres undefined),"inconclusive [inhibitor, single point]",–
COc1ccc(-c2ccc3c(c2)C2CC3CCN2C(=O)C(C)(C)C)cc1 (centres undefined),active: 20.6 µM,–

Structure (SMILES),Potency,"activity change, negative = growth inhibition"
Cc1nc(SCC(=O)Nc2cc(C(N)=O)cc(C(N)=O)c2)c2c(C)c(C)sc2n1,inactive,–
CCn1c2ccccc2c2nnc(SCC(=O)Nc3ccc4c(c3)OCO4)nc21,"inconclusive [inhibitor, single point]",–
O=C(CSC1CN(C(c2ccccc2)c2ccccc2)C1)N/N=C/c1ccccc1,"inconclusive [inhibitor, single point]",–
O=C(CCCSc1nnc(Nc2ccccc2F)s1)N1CCOCC1,"inconclusive [inhibitor, partial curve, poor fit]",–
COc1cc(CNC(=O)Nc2nc(C(N)c3ccccc3)cs2)cc(OC)c1OC (centres undefined),inactive,–
CCn1cc([N+](=O)[O-])c(C(=O)N2N=C(c3cccc4ccccc34)CC2c2ccccc2O)n1 (centres undefined),active: 12.6 µM,–
COc1ccc(NC(=O)CN(C)C(=O)c2cc(-c3ccc(OC)cc3)nc3ccccc23)cc1,"inconclusive [inhibitor, partial curve, poor fit]",–
Cc1cccc(NC(=O)CCn2cnc3ccccc3c2=O)c1,"inconclusive [inhibitor, single point]",–
Cc1ccc2occ(/C=C/C(=O)O)c(=O)c2c1,–,inconclusive: -32.9% [inhibitor]
CCNC(=S)N(Cc1ccc2c(c1)OCO2)C1CC(=O)N(c2ccc(F)cc2)C1=O (centres undefined),–,inconclusive: -31.5% [inhibitor]
Ic1ccc(/C=C2\C=Cc3ccccc32)cc1,"inconclusive [inhibitor, single point]",–
CCc1nn(CC(=O)N2CCCCC2)c(=O)c2cc3occc3n12,inactive,–
Cc1ccc(NC(=O)Nc2ccc3c(c2)nc(C)n3C)cc1,inactive,–
CCCc1nnc(NC(=O)c2nc(SCC)ncc2Cl)s1,inactive,–
Cc1cc(C)c(C#N)c(=N)o1,active: 25.9 µM,–
CN1CCN(S(=O)(=O)c2ccc3c(c2)NC(=O)C2CCCN32)CC1 (centres undefined),"inconclusive [inhibitor, partial curve, poor fit]",–
CCOC(=O)C1=C(CS(=O)(=O)c2ccc(F)c(C)c2)NC(=O)NC1c1ccccc1OC (centres undefined),"inconclusive [inhibitor, single point]",–
O=C(CC1N=C2c3ccccc3N=C(SCc3ccccc3Cl)N2C1=O)NCCc1ccccc1 (centres undefined),"inconclusive [inhibitor, single point]",–
CCOC(=O)c1c(C2COc3ccccc3O2)csc1NC(=O)c1ccco1 (centres undefined),active: 11.2 µM,–
COc1ccccc1C(=O)N/C(N)=N/c1nc2ccccc2o1,"inconclusive [inhibitor, single point]",–
CC(=O)Nc1ccc(-c2ccnc3c2CC(C)(C(=O)NCC2CCOCC2)O3)cc1 (centres undefined),"inconclusive [inhibitor, single point]",–
CCOc1ccc(-n2nc3ccc(NC(=O)c4ccc(OC)c(Cl)c4)cc3n2)cc1,"inconclusive [inhibitor, full curve, poor fit]",–
Clc1cccc(CSc2nnc(-c3c[nH]c4ccccc34)o2)c1,"inconclusive [inhibitor, partial curve]",–
